Some test systems named below: 501Mel; A101D; A2058; A375.
Common to all, as to experiment: cell count relative to DMSO control; melanoma cells; higher = more viable cells
Holding throughout (conditions): library dose: standard library concentration; 72 h

Structures are written as SMILES. The list shows a part of the results. Most values come without repeats; read them as rough.
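Note: cells treated in 1,536-well plates, then fixed and DAPI-stained, with nuclei counted from automated high-throughput microscope images.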

Regarding `C[C@]1(c2nc3c(C(N)=O)cccc3[nH]2)CCCN1` [Veliparib] + O=S(=O)(c1ccccc1)N(CC(F)(F)F)c1ccc(C(O)(C(F)(F)F)C(F)(F)F)cc1 [T0901317] (first compound 7 µM, partner dose 7 µM), the cell count in the experiment with 501Mel worked out at 88.4%; in the experiment with A101D, 65.4%; in the experiment with A2058 it was 76.9%; with A375 it was 72%.

Regarding `C[C@]1(c2nc3c(C(N)=O)cccc3[nH]2)CCCN1` [Veliparib] + COc1cc(N2CCC(N3CCN(C)CC3)CC2)ccc1Nc1ncc(Cl)c(Nc2ccccc2S(=O)(=O)C(C)C)n1 [NVP-TAE684] (first compound 7 µM, partner dose 0.4 µM), the cell count stood at 96.2% in the experiment with 501Mel, 70.4% in the experiment on A101D, 63.3% with A2058 and 81.8% in the experiment with A375.

As for `C=CCn1c(=O)c2cnc(Nc3ccc(N4CCN(C)CC4)cc3)nc2n1-c1cccc(C(C)(C)O)n1` + O=C(O)C(=O)Nc1sc2c(c1C(=O)O)CCNC2 [TCS401] (first compound 0.1 µM, partner dose 8.33333 µM), the cell count was 63.4% with 501Mel, 63.7% with A101D, 86.7% in the experiment on A2058 and 84.3% with A375.

Regarding `CO[C@@H]1[C@H](N(C)C(=O)c2ccccc2)C[C@H]2O[C@]1(C)n1c3ccccc3c3c4c(c5c6ccccc6n2c5c31)C(=O)NC4` [Midostaurin] + CCN(CC)CCCCNc1ncc2cc(-c3cc(OC)cc(OC)c3)c(NC(=O)NC(C)(C)C)nc2n1 [PD173074] (first compound 0.4 µM, partner dose 0.5 µM), the cell count came to 98.7% with 501Mel, 84.1% with A101D, 53.6% with A2058 and 80.8% in the experiment with A375.

Turning to `CO[C@@H]1[C@H](N(C)C(=O)c2ccccc2)C[C@H]2O[C@]1(C)n1c3ccccc3c3c4c(c5c6ccccc6n2c5c31)C(=O)NC4` [Midostaurin] + Cc1cc([N+](=O)[O-])ccc1NS(=O)(=O)c1cc(Cl)ccc1Cl [FH535] (first compound 0.4 µM, partner dose 5 µM), the cell count with 501Mel was determined as 66.6%; with A101D, 51.7%; in the experiment on A2058, 48.9%; with A375, 57.3%.

In the case of `Cc1nc(Nc2ncc(C(=O)Nc3c(C)cccc3Cl)s2)cc(N2CCN(CCO)CC2)n1` [dasatanib] + O=S(=O)(c1ccccc1)N(CC(F)(F)F)c1ccc(C(O)(C(F)(F)F)C(F)(F)F)cc1 [T0901317] (first compound 0.02 µM, partner dose 7 µM), the cell count in the experiment with 501Mel amounted to 69.7%; in the experiment with A101D, 71.6%; in the experiment with A2058 it was 71.8%; in the experiment on A375, 65%.

Consider `CN(C)S(=O)(=O)c1ccc2c(c1)/C(=C/c1cc3c([nH]1)CCCC3)C(=O)N2` + O=C1NC(=O)/C(=C/c2ccc(-c3ccc(F)cc3O)o2)S1 [AS252424] (first compound 2 µM, partner dose 5 µM), for which the cell count in the experiment on 501Mel came out at 76.3%; in the experiment with A101D, 80.4%; in the experiment on A2058, 89.7%; in the experiment with A375, 111%.

On to `Cc1nc(Nc2ncc(C(=O)Nc3c(C)cccc3Cl)s2)cc(N2CCN(CCO)CC2)n1` [dasatanib] + O=C1NC(=O)/C(=C/c2ccc(-c3ccc(F)cc3O)o2)S1 [AS252424] (first compound 0.02 µM, partner dose 5 µM), for which the cell count with 501Mel is 78.9%; with A101D, 76.7%; with A2058 it was 64.7%; in the experiment on A375 it was 66.1%.

With `CO[C@@H]1[C@H](N(C)C(=O)c2ccccc2)C[C@H]2O[C@]1(C)n1c3ccccc3c3c4c(c5c6ccccc6n2c5c31)C(=O)NC4` [Midostaurin] + COc1cc2ncnc(Nc3ccc(Oc4ccccc4)cc3)c2cc1OC [SrcI1] (first compound 0.4 µM, partner dose 10 µM), the cell count with 501Mel was 82.7%; with A101D it was 50.6%; in the experiment on A2058, 60.3%; in the experiment with A375 it was 80.4%.

As to `OCCn1cc(-c2cnc3nnn(Cc4ccc5ncccc5c4)c3n2)cn1` + O=C1NC(=O)/C(=C/c2ccc(-c3ccc(F)cc3O)o2)S1 [AS252424] (first compound 5 µM, partner dose 5 µM), the cell count was 87.1% in the experiment on 501Mel, 103% in the experiment with A101D, 108% with A2058 and 87.4% with A375.

As for `C=CCn1c(=O)c2cnc(Nc3ccc(N4CCN(C)CC4)cc3)nc2n1-c1cccc(C(C)(C)O)n1` + CCN(CC)CCCCNc1ncc2cc(-c3cc(OC)cc(OC)c3)c(NC(=O)NC(C)(C)C)nc2n1 [PD173074] (first compound 0.1 µM, partner dose 0.5 µM), the cell count in the experiment with 501Mel is 57.8%; in the experiment with A101D, 62.2%; in the experiment with A2058 it was 75.2%; in the experiment on A375, 62.4%.

As for `NCC(=O)Nc1ccc(-n2nc(C(F)(F)F)cc2-c2ccc3c(ccc4ccccc43)c2)cc1` + CCc1ccc(CCOc2ccc(CC3SC(=O)NC3=O)cc2)nc1 [pioglitazone] (first compound 5 µM, partner dose 10 µM), the cell count in the experiment on 501Mel came out at 1.82%; with A101D it was 110%; in the experiment with A2058, 87.1%; with A375, 62.7%.

For the origin of these results see the supplement of paper PMC4604168 (melanoma cell lines).
